# The list shows a part of the results.
# Experiments:
# Assay in all cases: glycan array binding signal (z-score within array); higher = stronger binding
# Details in all cases: glycan notation: IUPAC condensed, linker removed
# Fuc(a1-3)GlcNAc = molecular target: Fuc(a1-3)GlcNAc
# Outline: (§1)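 The binding signal is a Z-score computed within each array. Data were drawn from 3228 arrays in the Consortium for Functional Glycomics database, restricted to those with a known protein sequence. Scores were averaged over arrays of the same protein sequence at different concentrations or buffers, and over linkers, and negative values can be taken as non-binding.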
# [1] = molecular target: Fuc(a1-3)[Gal(b1-4)]Glc6S
# Outline: as §1
# [2] = molecular target: Fuc(a1-3)[Gal(b1-4)]GlcNAc
# Outline: as §1
# [3] = molecular target: Fuc(a1-3)[Gal(b1-4)]GlcNAc(b1-2)Man
# Outline: as §1
# [4] = molecular target: Fuc(a1-3)[Gal(b1-4)]GlcNAc(b1-2)Man(a1-3)[Fuc(a1-3)[Gal(b1-4)]GlcNAc(b1-2)Man(a1-6)]Man(b1-4)GlcNAc(b1-4)GlcNAc
# Outline: as §1
# [5] = molecular target: Fuc(a1-3)[Gal(b1-4)]GlcNAc(b1-2)Man(a1-3)[Fuc(a1-3)[Gal(b1-4)]GlcNAc(b1-2)Man(a1-6)]Man(b1-4)GlcNAc(b1-4)[Fuc(a1-6)]GlcNAc
# Outline: as §1
# [6] = molecular target: Fuc(a1-3)[Gal(b1-4)]GlcNAc(b1-3)Gal(b1-3)[Fuc(a1-4)]GlcNAc
# Outline: as §1
# [7] = molecular target: Fuc(a1-3)[Gal(b1-4)]GlcNAc(b1-3)Gal(b1-4)[Fuc(a1-3)]GlcNAc
# Outline: as §1
# [8] = molecular target: Fuc(a1-3)[Gal(b1-4)]GlcNAc(b1-3)Gal(b1-4)[Fuc(a1-3)]GlcNAc(b1-3)Gal(b1-4)[Fuc(a1-3)]GlcNAc
# Outline: as §1
# [9] = molecular target: Fuc(a1-3)[Gal(b1-4)]GlcNAc(b1-3)GalNAc
# Outline: as §1
# [10] = molecular target: Fuc(a1-3)[Gal(b1-4)]GlcNAc(b1-6)GalNAc
# Outline: as §1
# [11] = molecular target: Fuc(a1-3)[Gal(b1-4)]GlcNAc(b1-6)[Gal(b1-3)GlcNAc(b1-3)]Gal(b1-4)Glc
# Outline: as §1
# [12] = molecular target: Fuc(a1-3)[Gal(b1-4)]GlcNAc6S
# Outline: as §1
# [13] = molecular target: Fuc(a1-3)[Gal3S(b1-4)]Glc
# Outline: as §1
# [14] = molecular target: Fuc(a1-3)[Gal3S(b1-4)]GlcNAc
# Outline: as §1
# [15] = molecular target: Fuc(a1-3)[Gal3S(b1-4)]GlcNAc6S
# Outline: as §1
# [16] = molecular target: Fuc(a1-3)[GalNAc(b1-4)]GlcNAc
# Outline: as §1
# [17] = molecular target: Fuc(a1-3)[GalNAc(b1-4)]GlcNAc6S
# Outline: as §1
# Fuc(a1-4)GlcNAc = molecular target: Fuc(a1-4)GlcNAc
# Outline: as §1
# Fuc(b1-3)GlcNAc = molecular target: Fuc(b1-3)GlcNAc
# Outline: as §1
# Gal(a1-2)Gal = molecular target: Gal(a1-2)Gal
# Outline: as §1
# Gal(a1-3)Gal = molecular target: Gal(a1-3)Gal
# Outline: as §1
# Gal(a1-3)Gal(b1-3)GlcNAc = molecular target: Gal(a1-3)Gal(b1-3)GlcNAc
# Outline: as §1
# [18] = molecular target: Gal(a1-3)Gal(b1-3)GlcNAc(b1-2)Man
# Outline: as §1
# [19] = molecular target: Gal(a1-3)Gal(b1-3)GlcNAc(b1-2)Man(a1-3)[Gal(a1-3)Gal(b1-3)GlcNAc(b1-2)Man(a1-6)]Man(b1-4)GlcNAc(b1-4)GlcNAc
# Outline: as §1
# [20] = molecular target: Gal(a1-3)Gal(b1-3)GlcNAc(b1-3)GalNAc
# Outline: as §1
# [21] = molecular target: Gal(a1-3)Gal(b1-3)GlcNAc(b1-6)GalNAc
# Outline: as §1
# [22] = molecular target: Gal(a1-3)Gal(b1-3)[Fuc(a1-4)]GlcNAc(b1-2)Man(a1-3)[Gal(a1-3)Gal(b1-3)[Fuc(a1-4)]GlcNAc(b1-2)Man(a1-6)]Man(b1-4)GlcNAc(b1-4)GlcNAc
# Outline: as §1
# Gal(a1-3)Gal(b1-4)Glc = molecular target: Gal(a1-3)Gal(b1-4)Glc
# Outline: as §1
# Gal(a1-3)Gal(b1-4)GlcNAc = molecular target: Gal(a1-3)Gal(b1-4)GlcNAc
# Outline: as §1
# [23] = molecular target: Gal(a1-3)Gal(b1-4)GlcNAc(b1-2)Man
# Outline: as §1
# [24] = molecular target: Gal(a1-3)Gal(b1-4)GlcNAc(b1-2)Man(a1-3)[Gal(a1-3)Gal(b1-4)GlcNAc(b1-2)Man(a1-6)]Man(b1-4)GlcNAc(b1-4)GlcNAc
# Outline: as §1
# [25] = molecular target: Gal(a1-3)Gal(b1-4)GlcNAc(b1-3)GalNAc
# Outline: as §1
# [26] = molecular target: Gal(a1-3)Gal(b1-4)GlcNAc(b1-6)GalNAc
# Outline: as §1
# [27] = molecular target: Gal(a1-3)Gal(b1-4)[Fuc(a1-3)]GlcNAc
# Outline: as §1
# [28] = molecular target: Gal(a1-3)Gal(b1-4)[Fuc(a1-3)]GlcNAc(b1-2)Man(a1-3)[Gal(a1-3)Gal(b1-4)[Fuc(a1-3)]GlcNAc(b1-2)Man(a1-6)]Man(b1-4)GlcNAc(b1-4)GlcNAc
# Outline: as §1
# Gal(a1-3)GalNAc = molecular target: Gal(a1-3)GalNAc
# Outline: as §1
binder,measurement,setting,value
PX14375l-pdi-526-25-526 (Parabacteroides distasonis) (protein) DEEPKSTLTDVAYYKTQSQMESNVNYLYRTGAIGSYVDFGSAYIGPFASIQEELTGYFSNSYEGQEIVCRYTRELTRQQNTMQLASKMDKVWDDCYRGINVANGAIKHMPEVPMDQATADRLTAEAKFFRAFNYFYLVKTFGAVPFYTDPYELAENMELPRTETSTIYNQIESDLKDAMNVLPEATFAANGHRITKYVAAMTLTDVYMYQHKYAEAAETVRIVVNSNHKLTTNDDLAMNSAFNKLRSTDDLDEAIYAYEYDNQISPSNWLPTYAFDGDASSNGLFGTYAITQKVHGPNDRYLNIYESNDLRRQPNQFYHWTYTNPKTGKVWNSVGNAACCWYYYDEDALLTTGRGTKDWNVYRYAEALLDAAESIAQSTGVTAEAAGYLAQVKARANMEGKTAAEIASSLQSMGKQAFIEECWTERLRELPLEFKMWDMCVRTGMFPNISETTPGQVTYIPLVGAKNASGATIKESDLLWPLSVNEIQRNPSLTQNEGYSAK,glycan array binding signal (z-score),Fuc(a1-3)GlcNAc,-0.174
same,glycan array binding signal (z-score),[1],-0.028
same,glycan array binding signal (z-score),[2],-0.09
same,glycan array binding signal (z-score),[3],-0.355
same,glycan array binding signal (z-score),[4],0.078
same,glycan array binding signal (z-score),[5],-0.178
same,glycan array binding signal (z-score),[6],-0.357
same,glycan array binding signal (z-score),[7],0.013
same,glycan array binding signal (z-score),[8],-0.158
same,glycan array binding signal (z-score),[9],-0.404
same,glycan array binding signal (z-score),[10],2.66
same,glycan array binding signal (z-score),[11],-0.366
same,glycan array binding signal (z-score),[12],0.147
same,glycan array binding signal (z-score),[13],-0.391
same,glycan array binding signal (z-score),[14],-0.255
same,glycan array binding signal (z-score),[15],-0.018
same,glycan array binding signal (z-score),[16],0.014
same,glycan array binding signal (z-score),[17],-0.238
same,glycan array binding signal (z-score),Fuc(a1-4)GlcNAc,0.026
same,glycan array binding signal (z-score),Fuc(b1-3)GlcNAc,-0.225
same,glycan array binding signal (z-score),Gal(a1-2)Gal,-0.023
same,glycan array binding signal (z-score),Gal(a1-3)Gal,-0.181
same,glycan array binding signal (z-score),Gal(a1-3)Gal(b1-3)GlcNAc,0.682
same,glycan array binding signal (z-score),[18],0.003
same,glycan array binding signal (z-score),[19],0.345
same,glycan array binding signal (z-score),[20],-0.092
same,glycan array binding signal (z-score),[21],-0.201
same,glycan array binding signal (z-score),[22],0.104
same,glycan array binding signal (z-score),Gal(a1-3)Gal(b1-4)Glc,-0.297
same,glycan array binding signal (z-score),Gal(a1-3)Gal(b1-4)GlcNAc,-0.203
same,glycan array binding signal (z-score),[23],-0.148
same,glycan array binding signal (z-score),[24],0.174
same,glycan array binding signal (z-score),[25],-0.256
same,glycan array binding signal (z-score),[26],-0.04
same,glycan array binding signal (z-score),[27],-0.3
same,glycan array binding signal (z-score),[28],1.28
same,glycan array binding signal (z-score),Gal(a1-3)GalNAc,-0.043
